# Reference: PubChem BioAssay (Tox21)
# “And” between values parts separate entries of the source, which are not always exact repeats. Identical values can stand only once. The source made the active and inactive calls. Unless noted, calls come from the whole dose curve; as a rule, active = well fitted curve in the direction sought with a large enough effect in the repeat runs; inconclusive = weak or mixed curves; inactive = no such curve, though single readings can be large; an effect the other way counts as inactive or inconclusive.
# Key:
# [1] = qHTS assay to identify small molecule antagonists of the androgen receptor (AR) signaling pathway using the MDA cell line - cell viability counter screen (AID 743041; note: nearly all actives have a fitted effect of over 45% in size; note: potency is the fitted concentration of half-maximal effect; for viability change, negative = cytotoxic: % is set by controls: 0 for no effect and ±100 for the full control effect); conditions: MDA-kb2 viability, CellTiter-Fluor, 16 h, cells co-treated with R1881 androgen agonist; viability change, negative = cytotoxic: at 70.3 µM (top of the series) unless noted
# Procedure, shortened: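 In this qHTS counter assay, fluorescence intensity after CellTiter-Fluor addition indicated viability of MDA-kb2 AR-luc cells given compounds and R1881 for 16 h at 37C.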
# [2] = qHTS assay to identify small molecule antagonists of the thyroid receptor (TR) signaling pathway - cell viability counter screen (AID 743064); conditions: GH3.TRE-Luc viability, CellTiter-Fluor, 24 h; activity change, negative = cytotoxic: at 70.3 µM (top of the series) unless noted; note: nearly all actives have a fitted effect of over 50% in size; note: potency is the fitted concentration of half-maximal effect; for activity change, negative = cytotoxic: % is set by controls: 0 for no effect and ±100 for the full control effect
# Procedure, shortened: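 Fluorescence from CellTiter-Fluor, added after 23.5 h exposure at 37 °C, reported viability of GH3.TRE-Luc cells co-treated with compound and 1 nM T3. Measured in the same wells as the luciferase TR readout.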
# [3] = qHTS assay to identify small molecule antagonists of the thyroid receptor (TR) signaling pathway (AID 743065); conditions: GH3.TRE-Luc, T3-stimulated luciferase inhibition, 23.5 h; series mostly up to 70.3 µM; note: nearly all actives have a fitted effect of over 55% in size; note: potency is the fitted concentration of half-maximal effect
# Procedure, shortened: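 GH3.TRE-Luc rat pituitary cells carrying two TR response elements driving luciferase were plated for 4 h, given compound plus 1 nM T3 (final), and incubated 23.5 h at 37 C. ONE-Glo luminescence measured reporter inhibition; CellTiter-Fluor fluorescence tracked cytotoxicity.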
# [4] = qHTS assay to identify small molecule antagonists of the estrogen receptor alpha (ER-alpha) signaling pathway - cell viability counter screen (AID 743074; calls by dose curve;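 note: HEK293 cells carrying ER-alpha-UAS-bla reporter stimulated with 17beta-estradiol; nearly all actives have a fitted effect of over 45% in size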; note: potency is the fitted concentration of half-maximal effect); conditions: ERalpha-bla HEK293 viability, CellTiter-Glo luminescence, 18 h; series mostly up to 69.4 µM
# [5] = molecular target: Estrogen receptor (Homo sapiens) (UniProt P03372); experiment: qHTS assay to identify small molecule agonists of the estrogen receptor alpha (ER-alpha) signaling pathway using the BG1 cell line (AID 743079); conditions: BG1Luc4E2 cells, ERE-luciferase agonist, 22 h; activation: at 70.3 µM (top of the series) unless noted; note: nearly all actives have a fitted effect of over 20% in size; note: potency is the fitted concentration of half-maximal effect; for activation: % is set by controls: 0 for no effect and ±100 for the full control effect
# [6] = molecular target: Androgen receptor (Homo sapiens) (UniProt P10275); experiment: qHTS assay to identify small molecule agonists of the androgen receptor (AR) signaling pathway (AID 743036; active = well fitted activation curve with a large enough effect in the signal ratio in the repeat runs, with a control signal flat, not every such curve was filed as active; inconclusive = weak or mixed curves, or effect the other way; inactive = no such curve, though single readings can be large or run the other way; the % refers to the signal ratio; note: potency is the fitted concentration of half-maximal effect); conditions: HEK293 AR-UAS-bla GripTite, beta-lactamase FRET ratio, 16 h; activation: at 62.4 µM (top of the series) unless noted
# Procedure, shortened: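 Fluorescence from a beta-lactamase FRET substrate served as read-out in AR-UAS-bla GripTite HEK293 cells. Cells were treated with DMSO-dissolved compounds for 16 h at 37C, then with LiveBLAzer B/G substrate for 2 h at room temperature.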
# [7] = molecular target: Estrogen receptor (Homo sapiens) (UniProt P03372); experiment: qHTS assay to identify small molecule antagonists of the estrogen receptor alpha (ER-alpha) signaling pathway (AID 743069; active = well fitted curve in the direction sought with a large enough effect in the signal ratio in the repeat runs, not every such curve was filed as active; inconclusive = weak or mixed curves, or effect the other way; inactive = no such curve, though single readings can be large or run the other way; the % refers to the signal ratio; note: potency is the fitted concentration of half-maximal effect; for activity, negative = inhibition: % is set by controls: 0 for no effect and ±100 for the full control effect); conditions: HEK293 ER-alpha-UAS-bla, beta-lactamase ratio, antagonist mode; activity, negative = inhibition: at 69.4 µM (top of the series) unless noted
# Procedure, shortened: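 A 17beta-estradiol challenge was applied right after compound transfer to ER-alpha-UAS-bla HEK293 cells previously kept in charcoal-stripped serum. Plates stood 18 hr at 37C and 5% CO2; fluorescence was read following 2 hr FRET substrate loading at room temperature.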
# [8] = qHTS assay to identify small molecule antagonists of the estrogen receptor alpha (ER-alpha) signaling pathway using the BG1 cell line - cell viability counter screen (AID 743081); conditions: BG1Luc4E2 viability, CellTiter-Fluor, 22 h; activity change, negative = cytotoxicity: at 70.3 µM (top of the series) unless noted;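 note: compound given together with 17beta-estradiol as the ER stimulus; nearly all actives have a fitted effect of over 45% in size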; note: potency is the fitted concentration of half-maximal effect
# [9] = molecular target: Estrogen receptor (Homo sapiens) (UniProt P03372); experiment: qHTS assay to identify small molecule agonists of the estrogen receptor alpha (ER-alpha) signaling pathway (AID 743075; calls by dose curve;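 note: HEK293 GripTite cells with ER-alpha and UAS-driven beta-lactamase reporter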; note: potency is the fitted concentration of half-maximal effect); conditions: HEK293 ER-alpha-UAS-bla, beta-lactamase FRET ratio, 18 h; series mostly up to 70.1 µM
# [10] = qHTS assay to identify small molecule antagonists of the estrogen receptor alpha (ER-alpha) signaling pathway using the BG1 cell line (AID 743080; calls by dose curve;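 note: BG1 cells stimulated with 17beta-estradiol alongside compound; nearly all actives have a fitted effect of over 25% in size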; note: potency is the fitted concentration of half-maximal effect); conditions: BG1Luc4E2 ERE-luciferase antagonist mode, luminescence; activity change, negative = inhibition: at 70.3 µM (top of the series) unless noted
# Procedure, shortened: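 BG1-Luc-4E2 cells (endogenous full-length ER-alpha, stable 4×ERE-luciferase) were starved 5 days in phenol-red-free medium with 10% charcoal-stripped FBS, plated 24 h, then given compound plus 17beta-estradiol for 21.5 h at 37 C; ONE-Glo luminescence read after 30 min.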
# [11] = system: thyroid hormone receptor (rat, GH3 cells); experiment: qHTS assay to identify small molecule agonists of the thyroid receptor (TR) signaling pathway (AID 743066; calls by dose curve; note: potency is the fitted concentration of half-maximal effect); conditions: GH3.TRE-Luc cells, TR agonist luciferase, 24 h; activation: at 83.9 µM (top of the series) unless noted
# Aromatase (Homo sapiens) = Aromatase (Homo sapiens) (UniProt P11511); experiment: qHTS assay to identify aromatase inhibitors (AID 743083); conditions: MCF-7 aro ERE, testosterone-driven ERE luciferase, 24 h; activity, negative = inhibition: at 70.3 µM (top of the series); note: potency is the fitted concentration of half-maximal effect; nearly all actives have a fitted effect of over 55% in size
# [12] = molecular target: Androgen receptor (Homo sapiens) (UniProt P10275); experiment: qHTS assay to identify small molecule agonists of the androgen receptor (AR) signaling pathway using the MDA cell line (AID 743040; note: % is set by controls: 0 for no effect and ±100 for the full control effect; nearly all actives have a fitted effect of over 20% in size); conditions: MDA-kb2 AR-luc cells, MMTV luciferase, 16 h; activity change: at 70.3 µM (top of the series), stronger effect = higher value
# Procedure, shortened: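 Cell-based luciferase reporter: MDA-kb2, MMTV promoter (AR + GR response elements). 16 h compound exposure at 37C; ONE-Glo, 30 min RT, luminescence.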
# [13] = molecular target: Androgen receptor (Homo sapiens) (UniProt P10275); experiment: qHTS assay to identify small molecule antagonists of the androgen receptor (AR) signaling pathway using the MDA cell line (AID 743042; note: % is set by controls: 0 for no effect and ±100 for the full control effect; nearly all actives have a fitted effect of over 55% in size); conditions: MDA-kb2 AR-luc, MMTV luciferase, R1881 antagonist, 16 h; series mostly up to 70.3 µM
# Procedure, shortened: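 MDA-kb2 cells (human breast carcinoma, stably carrying an MMTV-luciferase reporter responsive to AR and GR) were plated at 3,000 cells/well and preincubated 5 hr at 37C, then given compound plus R1881 agonist for 16 h. ONE-Glo luminescence was read.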
# Tags give direction and shape of the fitted curve or compound fluorescence and quenching.
# Chain of UniProt P11511 (P11511 whole entry, looked up): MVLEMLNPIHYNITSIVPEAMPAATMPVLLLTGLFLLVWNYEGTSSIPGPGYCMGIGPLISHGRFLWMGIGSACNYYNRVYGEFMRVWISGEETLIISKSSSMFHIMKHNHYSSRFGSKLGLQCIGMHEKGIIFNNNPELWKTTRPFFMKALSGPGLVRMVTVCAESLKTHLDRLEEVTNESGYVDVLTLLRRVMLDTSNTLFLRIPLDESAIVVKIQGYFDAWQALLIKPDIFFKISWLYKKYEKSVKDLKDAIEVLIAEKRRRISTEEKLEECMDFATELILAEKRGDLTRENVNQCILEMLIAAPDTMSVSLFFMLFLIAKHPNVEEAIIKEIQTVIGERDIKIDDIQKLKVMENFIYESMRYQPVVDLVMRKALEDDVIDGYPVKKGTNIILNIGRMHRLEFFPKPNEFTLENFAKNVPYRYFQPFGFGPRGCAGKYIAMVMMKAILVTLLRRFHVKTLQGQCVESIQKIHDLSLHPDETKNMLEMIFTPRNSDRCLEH
# Chain of UniProt P10275 (P10275 whole entry, looked up): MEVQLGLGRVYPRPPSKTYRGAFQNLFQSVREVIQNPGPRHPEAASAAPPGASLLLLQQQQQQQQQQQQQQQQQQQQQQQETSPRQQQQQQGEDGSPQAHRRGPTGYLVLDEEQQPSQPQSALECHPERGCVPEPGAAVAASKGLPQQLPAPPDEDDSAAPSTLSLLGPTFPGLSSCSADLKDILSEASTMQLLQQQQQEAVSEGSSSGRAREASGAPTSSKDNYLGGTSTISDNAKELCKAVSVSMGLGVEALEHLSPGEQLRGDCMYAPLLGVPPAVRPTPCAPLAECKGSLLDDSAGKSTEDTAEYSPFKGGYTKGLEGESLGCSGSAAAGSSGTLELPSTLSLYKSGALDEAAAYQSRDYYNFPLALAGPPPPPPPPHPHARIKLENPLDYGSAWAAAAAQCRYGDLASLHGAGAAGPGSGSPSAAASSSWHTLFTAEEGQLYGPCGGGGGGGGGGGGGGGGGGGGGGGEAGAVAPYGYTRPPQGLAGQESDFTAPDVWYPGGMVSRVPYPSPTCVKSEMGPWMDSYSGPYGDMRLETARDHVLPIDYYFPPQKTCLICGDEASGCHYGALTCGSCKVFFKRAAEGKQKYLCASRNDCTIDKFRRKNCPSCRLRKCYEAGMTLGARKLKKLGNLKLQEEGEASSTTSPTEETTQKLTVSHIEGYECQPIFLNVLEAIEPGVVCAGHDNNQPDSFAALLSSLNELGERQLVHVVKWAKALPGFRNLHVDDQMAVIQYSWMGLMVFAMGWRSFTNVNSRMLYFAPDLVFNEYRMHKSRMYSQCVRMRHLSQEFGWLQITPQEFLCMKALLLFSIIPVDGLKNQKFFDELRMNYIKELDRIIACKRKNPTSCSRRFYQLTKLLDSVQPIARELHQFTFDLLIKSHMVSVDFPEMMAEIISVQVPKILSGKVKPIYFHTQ
# Chain of UniProt P03372 (P03372 whole entry, looked up): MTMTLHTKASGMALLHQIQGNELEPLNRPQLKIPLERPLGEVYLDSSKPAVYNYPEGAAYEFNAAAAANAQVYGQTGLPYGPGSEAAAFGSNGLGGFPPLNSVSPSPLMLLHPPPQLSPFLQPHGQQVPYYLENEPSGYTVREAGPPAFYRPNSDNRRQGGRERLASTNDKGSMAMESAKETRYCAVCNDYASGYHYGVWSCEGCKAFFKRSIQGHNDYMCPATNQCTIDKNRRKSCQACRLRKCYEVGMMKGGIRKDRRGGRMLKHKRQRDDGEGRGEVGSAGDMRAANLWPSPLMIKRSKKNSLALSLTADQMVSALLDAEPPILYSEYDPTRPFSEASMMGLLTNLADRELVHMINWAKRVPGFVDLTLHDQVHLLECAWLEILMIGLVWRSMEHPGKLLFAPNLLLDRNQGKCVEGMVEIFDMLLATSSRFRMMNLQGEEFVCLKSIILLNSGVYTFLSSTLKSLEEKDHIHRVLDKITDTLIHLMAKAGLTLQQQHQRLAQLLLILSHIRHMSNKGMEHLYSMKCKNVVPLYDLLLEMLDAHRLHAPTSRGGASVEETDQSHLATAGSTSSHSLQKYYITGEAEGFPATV
smiles,measurement,setting,value
CC1=CC2C3CC(C=C3C)C2C1 (stereo unspecified),Potency,[1],inactive
same,Potency,[2],"inactive and inconclusive: 68.6 µM [cytotoxic, single point]"
same,Potency,[3],inconclusive: 68.6 µM [inhibitor]
same,Potency,[4],"inconclusive: 59.7 µM [cytotoxic, single point]"
same,activation,[5],inconclusive: 6.28% [phenotype inactive]
COC(=O)c1cc(Cl)cc(Cl)c1,Potency,[6],"inconclusive: 61.6 µM [rising, partial curve, poor fit]"
same,Potency,[2],inactive
same,Potency,[7],inactive
same,Potency,[4],inactive
same,Potency,[5],inactive
CN(CC1(C)CCCO1)S(=O)(=O)c1ccc(Cl)c(S(N)(=O)=O)c1 (stereo unspecified),Potency,[1],inactive
same,"activity change, negative = cytotoxicity",[8],inconclusive: 38.9%
C=C(C)C(=O)OCC(C)O (stereo unspecified),Potency,[1],"inconclusive: 4.92 µM [rising, full curve, poor fit]"
same,Potency,[2],inactive
c1cc2ccc3ccc4ccc5cccc6c(c1)c2c3c4c56,"activity change, negative = cytotoxic",[2],inactive: 20.6% [at 3.79 µM]
CC(C)(CC(=O)O)C(=O)O,Potency,[6],inactive
same,Potency,[2],"inconclusive: 60.6 µM [rising, partial curve, poor fit]"
same,Potency,[9],inactive
same,Potency,[10],inactive
COc1ccccc1OCC1CNC(=O)O1 (stereo unspecified),Potency,[1],"inconclusive: 7.5 µM [rising, single point]"
same,Potency,[2],inactive
N[C@@H](Cc1ccc(O)cc1)C(=O)O,Potency,[1],inactive
same,Potency,[2],inactive
OCCN(CCO)c1ccccc1,Potency,[1],"inconclusive: 27.3 µM [rising, partial curve, poor fit]"
same,Potency,[7],inactive
same,Potency,[5],"inconclusive: 54.5 µM [activator, partial curve]"
CCC(C)CCCC(C)(C)O (stereo unspecified),"activity change, negative = cytotoxic",[2],inconclusive: 14.5%
Clc1ccc2c(c1)CCc1cccnc1C2=C1CCNCC1,Potency,[2],active: 10.6 µM
same,Potency,[3],active: 9.44 µM
same,activation,[11],inconclusive: -7.86% [phenotype inactive]
same,Potency,[4],"inconclusive: 26.8 µM [cytotoxic, partial curve, poor fit]"
same,Potency,[10],"inconclusive: 7.5 µM [rising, single point]"
same,Potency,Aromatase (Homo sapiens),"inconclusive: 33.5 µM [inhibitor, single point]"
NCCCCCCNCCCCCCN,Potency,[2],inactive
Cc1ccc(C(=O)c2ccccc2)cc1,Potency,[12],inactive
same,Potency,[13],inactive
same,Potency,[5],active: 21.7 µM
CC(=O)c1c(C)c([N+](=O)[O-])c(C(C)(C)C)c([N+](=O)[O-])c1C,Potency,[2],"inconclusive: 77 µM [cytotoxic, single point]"
same,Potency,[3],"inconclusive: 68.6 µM [inhibitor, single point]"
COc1ccc(COC=O)cc1,Potency,[2],"inconclusive: 0.545 µM [rising, single point]"
CCCCOC(=O)C(=O)OCCCC,Potency,[1],inactive
same,Potency,[4],"inconclusive: 21.9 µM [rising, single point]"
NNc1nc(-c2ccc(N)cc2)cs1,Potency,[1],inconclusive: 68.6 µM [cytotoxic]
same,Potency,[2],"inconclusive: 54.5 µM [cytotoxic, single point]"
same,Potency,[3],"inconclusive: 61.1 µM [inhibitor, partial curve]"
same,Potency,[7],"inconclusive: 54.9 µM [cytotoxic, partial curve, poor fit]"
same,Potency,[8],"inconclusive: 68.6 µM [cytotoxic, single point]"
same,Potency,Aromatase (Homo sapiens),"inconclusive: 15.4 µM [inhibitor, partial curve, poor fit]"
OCCCCCCO,Potency,[2],inactive
same,Potency,[3],inactive
O=C1OC2(c3ccc(O)cc3Oc3cc(O)ccc32)c2ccc(N=C=S)cc21,Potency,[1],"inconclusive: 62.3 µM [cytotoxic, partial curve]"
same,Potency,[2],inconclusive: 55.5 µM
CC(=O)NC(Cc1ccccc1)C(=O)O (stereo unspecified),Potency,[1],inactive
same,"activity change, negative = cytotoxic",[2],inconclusive: 23.9%
Nc1ccccc1S(=O)(=O)c1ccccc1,Potency,[2],inactive
C/C=C(\C)C(=O)OCC/C=C\CC,Potency,[2],"inconclusive: 27.3 µM [cytotoxic, single point]"
same,Potency,[3],"inconclusive: 27.3 µM [inhibitor, single point]"
O=[N+]([O-])c1ccc(O)cc1,Potency,[1],"inconclusive: 54.5 µM [cytotoxic, partial curve] and inconclusive: 61.1 µM [cytotoxic, single point]"
same,Potency,[2],"inconclusive: 71.2 µM [cytotoxic, partial curve, poor fit] and active: 61.1 µM and inconclusive: 27.3 µM [cytotoxic, partial curve]"
same,Potency,[7],"inconclusive: 27.5 µM [activator, partial curve] and inconclusive: 21.9 µM [activator]"
same,Potency,[4],"inconclusive: 50.9 µM [cytotoxic, single point]"
same,Potency,[9],"inconclusive: 1.81 µM [falling, full curve]"
same,activation,[5],inconclusive: -10.6% [phenotype inactive] [at 95 µM]
same,Potency,[8],"inconclusive: 63.5 µM [cytotoxic, partial curve, poor fit]"
Cc1[nH]cnc1CN1CCc2c(c3ccccc3n2C)C1=O,Potency,[1],inactive
CN(C)c1ccncc1,Potency,[2],inactive
same,Potency,[5],inactive
C#C[C@]1(O)CC[C@H]2[C@@H]3CCc4cc(OC5CCCC5)ccc4[C@H]3CC[C@@]21C,activation,[11],inconclusive: -7.91% [phenotype inactive]
same,Potency,[4],inactive
COc1ccc(Nc2ccc(OC)cc2)cc1,Potency,[11],inactive
same,Potency,[10],"inconclusive: 7.84 µM [rising, partial curve]"
Cc1cccc(Oc2ccccc2)c1,Potency,[3],"inconclusive: 29.9 µM [inhibitor, partial curve, poor fit]"
same,Potency,[4],inactive
same,Potency,[5],inactive
same,Potency,[10],inactive
same,Potency,Aromatase (Homo sapiens),"inconclusive: 33.5 µM [inhibitor, single point]"
O=C(OCc1ccccc1)c1ccccc1O,Potency,[2],"inconclusive: 27.1 µM [rising, single point]"
same,Potency,[5],active: 24.3 µM
same,activation,[5],inconclusive: 13.8% [phenotype inactive]
same,Potency,[10],"inconclusive: 76.4 µM [rising, partial curve, poor fit]"
O=C(O)c1cc(O)c2c(c1)C(=O)c1cccc(O)c1C2=O,Potency,[2],inactive
same,Potency,[4],inactive
same,Potency,[5],active: 39.7 µM
same,Potency,[8],"inconclusive: 56.1 µM [cytotoxic, partial curve]"
CCCC(=O)OC(C)(C)Cc1ccccc1,Potency,[2],inactive
same,Potency,[4],inactive
C=CCc1ccc(OC)c(OC)c1,Potency,[11],inactive
CCCCCCC(CO)CCCC (stereo unspecified),Potency,[3],inactive
ClC(Cl)(Cl)c1ccc(C(Cl)(Cl)Cl)cc1,Potency,[11],inactive
same,Potency,[5],inactive
same,Potency,[10],inactive
CCCCOC(=O)/C=C\C(=O)OCCCC,Potency,[3],"inconclusive: 70.9 µM [inhibitor, single point]"
CCc1c(C(=O)NN2CCCCC2)nn(-c2ccc(Cl)cc2Cl)c1-c1ccc(Br)cc1,Potency,[2],active: 15.4 µM
same,Potency,[11],"inconclusive: 2.43 µM [inhibitor, partial curve, poor fit]"
same,Potency,[7],active: 13.8 µM [inconclusive]
same,Potency,[5],active: 27.3 µM
same,Potency,[10],"inconclusive: 68.6 µM [falling, single point]"
same,Potency,Aromatase (Homo sapiens),"inconclusive: 68.6 µM [inhibitor, single point]"
O=[N+]([O-])c1cc(Cl)c(Cl)c(Cl)c1Cl,Potency,[2],inconclusive: 60.9 µM [cytotoxic]
same,Potency,Aromatase (Homo sapiens),"inconclusive: 54.3 µM [inhibitor, single point]"
C1CCCNCC1,Potency,[2],inactive
same,Potency,[9],"inconclusive: 29 µM [falling, partial curve]"
same,activation,[5],inconclusive: 11.5% [phenotype inactive] [at 95 µM]
Nc1nnnn1-c1ccccc1,Potency,[7],inactive
CCCCCC(CC)OC(=O)CCCOc1ccc(Cl)cc1Cl (stereo unspecified),Potency,[3],inactive
CCOC(=O)c1c(N)sc2c1CCN(Cc1ccccc1)C2,Potency,[3],"inconclusive: 29.8 µM [inhibitor, single point]"
same,Potency,[5],"inconclusive: 29.8 µM [inhibitor, partial curve]"
same,Potency,[10],"inconclusive: 11.9 µM [falling, partial curve, poor fit]"
same,Potency,[8],"inconclusive: 13.3 µM [cytotoxic, partial curve, poor fit]"
CCCCc1nc2cccnc2n1Cc1ccc(-c2ccccc2-c2nnn[nH]2)cc1,Potency,[3],inactive
same,Potency,[7],"inconclusive: 49 µM [fluorescent, partial curve, poor fit]"
same,Potency,[4],"inconclusive: 27.5 µM [cytotoxic, full curve, poor fit]"
O=C(O)CCN(C1(C(=O)NO)CCCC1)S(=O)(=O)c1ccc(Oc2ccc(F)cc2)cc1,Potency,[3],inactive
O=C1CCC(=O)N1Cl,Potency,[2],inactive
same,Potency,[7],inactive
O=P(O)(O)C(O)(Cc1cccnc1)P(=O)(O)O,Potency,[7],inactive
